Assay [1] addresses T1, LATS2-FLAG (full-length LATS2) (UniProt Q9NRM7).
T1 sequence: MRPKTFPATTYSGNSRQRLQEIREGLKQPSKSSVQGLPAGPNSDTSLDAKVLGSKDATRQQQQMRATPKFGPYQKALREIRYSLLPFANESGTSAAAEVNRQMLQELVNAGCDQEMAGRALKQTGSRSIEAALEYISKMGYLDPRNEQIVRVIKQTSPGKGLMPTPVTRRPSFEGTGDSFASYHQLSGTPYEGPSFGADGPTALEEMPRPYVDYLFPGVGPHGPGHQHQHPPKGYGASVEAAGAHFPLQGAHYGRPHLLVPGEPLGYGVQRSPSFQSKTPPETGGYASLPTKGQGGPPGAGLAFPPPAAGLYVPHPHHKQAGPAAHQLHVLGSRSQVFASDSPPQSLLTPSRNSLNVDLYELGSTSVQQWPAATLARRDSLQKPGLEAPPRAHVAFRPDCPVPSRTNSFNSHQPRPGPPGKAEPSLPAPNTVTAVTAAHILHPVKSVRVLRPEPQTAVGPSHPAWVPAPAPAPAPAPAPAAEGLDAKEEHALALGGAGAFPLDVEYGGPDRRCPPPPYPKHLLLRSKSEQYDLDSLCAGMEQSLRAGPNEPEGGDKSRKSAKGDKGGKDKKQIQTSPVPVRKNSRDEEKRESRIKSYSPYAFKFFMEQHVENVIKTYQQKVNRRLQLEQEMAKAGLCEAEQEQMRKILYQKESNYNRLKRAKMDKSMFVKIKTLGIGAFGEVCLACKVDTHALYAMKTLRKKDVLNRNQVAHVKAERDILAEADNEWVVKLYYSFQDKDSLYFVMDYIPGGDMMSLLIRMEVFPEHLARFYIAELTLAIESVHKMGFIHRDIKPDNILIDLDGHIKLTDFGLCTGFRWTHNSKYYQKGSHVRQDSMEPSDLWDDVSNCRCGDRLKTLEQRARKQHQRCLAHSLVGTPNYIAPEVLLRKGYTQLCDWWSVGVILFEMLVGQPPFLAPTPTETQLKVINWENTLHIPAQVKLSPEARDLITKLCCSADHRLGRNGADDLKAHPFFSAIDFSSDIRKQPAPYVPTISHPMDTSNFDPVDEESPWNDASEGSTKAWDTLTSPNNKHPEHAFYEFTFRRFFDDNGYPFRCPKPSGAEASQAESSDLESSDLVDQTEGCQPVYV
The assay is described as follows: co-IP; lysates of separately transfected HEK293A cells combined (2:1, 1 h, 4°C); LATS2-FLAG precipitated with anti-FLAG on Protein G Dynabeads, GFP-LIMD1 variants detected by anti-GFP blot; IgG control; buffer 20 mM Tris-HCl pH 7, 137 mM NaCl, 2 mM EDTA, 1% NP-40, 10% glycerol.

By UniProt entry, the sequences of proteins in these tests, tags left out. Where a name states a change or a piece, a line headed by the entry shows the natural chain unless it says otherwise.
UniProt Q9UGP4: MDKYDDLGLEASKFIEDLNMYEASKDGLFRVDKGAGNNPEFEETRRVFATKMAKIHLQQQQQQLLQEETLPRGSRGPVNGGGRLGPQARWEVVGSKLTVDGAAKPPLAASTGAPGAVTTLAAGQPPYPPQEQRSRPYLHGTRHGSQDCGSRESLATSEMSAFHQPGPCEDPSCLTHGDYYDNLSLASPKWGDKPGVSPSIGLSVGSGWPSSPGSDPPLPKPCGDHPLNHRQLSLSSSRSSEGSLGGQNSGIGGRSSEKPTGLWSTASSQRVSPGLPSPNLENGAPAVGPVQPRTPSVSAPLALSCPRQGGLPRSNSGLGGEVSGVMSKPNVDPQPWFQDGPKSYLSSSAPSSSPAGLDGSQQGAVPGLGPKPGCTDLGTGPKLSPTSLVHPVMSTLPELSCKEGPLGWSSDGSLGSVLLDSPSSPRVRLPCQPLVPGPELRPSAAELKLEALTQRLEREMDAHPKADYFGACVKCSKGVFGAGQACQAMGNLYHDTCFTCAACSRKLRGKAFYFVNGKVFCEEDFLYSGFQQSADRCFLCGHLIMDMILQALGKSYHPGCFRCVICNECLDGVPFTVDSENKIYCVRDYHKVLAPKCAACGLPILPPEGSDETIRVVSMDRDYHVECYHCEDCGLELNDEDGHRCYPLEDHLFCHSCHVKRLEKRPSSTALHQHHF

In assay [2] the target is T2, LATS1-3xMyc (full-length LATS1) (UniProt O95835).
T2 sequence: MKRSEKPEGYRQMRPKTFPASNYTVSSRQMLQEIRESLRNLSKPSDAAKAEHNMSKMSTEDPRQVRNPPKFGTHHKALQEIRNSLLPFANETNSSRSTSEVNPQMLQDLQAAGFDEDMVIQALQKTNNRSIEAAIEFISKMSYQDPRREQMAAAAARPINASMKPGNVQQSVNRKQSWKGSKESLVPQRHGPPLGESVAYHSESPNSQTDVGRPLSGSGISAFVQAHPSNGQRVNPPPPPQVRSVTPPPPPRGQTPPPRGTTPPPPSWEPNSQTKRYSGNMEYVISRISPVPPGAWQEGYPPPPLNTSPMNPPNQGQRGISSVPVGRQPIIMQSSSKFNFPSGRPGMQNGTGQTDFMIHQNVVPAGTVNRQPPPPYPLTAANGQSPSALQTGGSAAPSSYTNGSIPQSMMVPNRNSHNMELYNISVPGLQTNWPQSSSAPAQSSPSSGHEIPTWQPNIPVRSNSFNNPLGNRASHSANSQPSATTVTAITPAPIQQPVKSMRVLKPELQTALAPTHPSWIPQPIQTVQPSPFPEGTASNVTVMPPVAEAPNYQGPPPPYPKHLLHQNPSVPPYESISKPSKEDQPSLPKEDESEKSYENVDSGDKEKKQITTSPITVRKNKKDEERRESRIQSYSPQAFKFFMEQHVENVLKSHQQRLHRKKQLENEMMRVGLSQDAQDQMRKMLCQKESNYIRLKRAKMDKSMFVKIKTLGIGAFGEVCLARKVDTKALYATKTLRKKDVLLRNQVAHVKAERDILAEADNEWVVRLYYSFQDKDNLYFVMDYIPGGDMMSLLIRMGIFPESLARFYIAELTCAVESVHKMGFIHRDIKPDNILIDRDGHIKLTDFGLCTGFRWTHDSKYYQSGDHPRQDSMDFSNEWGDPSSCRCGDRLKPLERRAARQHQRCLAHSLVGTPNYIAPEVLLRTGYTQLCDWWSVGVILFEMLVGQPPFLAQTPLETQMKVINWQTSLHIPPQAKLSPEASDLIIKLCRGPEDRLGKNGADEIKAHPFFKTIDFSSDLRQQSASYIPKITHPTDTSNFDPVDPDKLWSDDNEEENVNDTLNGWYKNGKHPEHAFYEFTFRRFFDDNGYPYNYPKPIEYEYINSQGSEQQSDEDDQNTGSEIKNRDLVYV
The assay is described as follows: co-IP; lysates of separately transfected HEK293A cells combined (2:1, 1 h, 4°C); LATS1-3xMyc precipitated with anti-Myc on Protein G Dynabeads, GFP- or V5-tagged LIMD1 variants detected by blot; IgG control; buffer 20 mM Tris-HCl pH 7, 137 mM NaCl, 2 mM EDTA, 1% NP-40, 10% glycerol.

Our source for the binding values is PMC12863670.

No constants are given. Whether binding was seen depends on the method and setting. Binding seen in cells or lysates may run through a third protein. Some results given as binding are weak or reduced against the parent protein; the word gives no strength. Sequences can lack the tags named with a protein.

With “GFP-LIMD1-(468-676), carboxy-terminal half of LIMD1 with the three LIM domains (from UniProt Q9UGP4 468-676) (domain or fragment)”, the binding entry in assay [1] and in assay [2] was “binds” throughout. As to “V5-tagged LIMD1 Y646A (from UniProt Q9UGP4 1-676)”, the binding result in assay [2] is “binds”.

Take “GFP-LIMD1-(1-467), amino-terminal half of LIMD1 (from UniProt Q9UGP4 1-467) (domain or fragment)”: the binding entry in assay [1] and in assay [2] was “no binding” each time. On to “V5-tagged wild-type LIMD1 (from UniProt Q9UGP4 1-676)”, for which, in assay [2], the binding result is on record as “binds”.
